This passage reports yeast fitness gain results from the supplement of paper PMC11741623.

B1: HMG20A, Q9NP66 (protein)
chain: MENLMTSSTLPPLFADEDGSKESNDLATTGLNHPEVPYSSGATSSTNNPEFVEDLSQGQLLQSESSNAAEGNEQRHEDEQRSKRGGWSKGRKRKKPLRDSNAPKSPLTGYVRFMNERREQLRAKRPEVPFPEITRMLGNEWSKLPPEEKQRYLDEADRDKERYMKELEQYQKTEAYKVFSRKTQDRQKGKSHRQDAARQATHDHEKETEVKERSVFDIPIFTEEFLNHSKAREAELRQLRKSNMEFEERNAALQKHVESMRTAVEKLEVDVIQERSRNTVLQQHLETLRQVLTSSFASMPLPGSGETPTVDTIDSYMNRLHSIILANPQDNENFIATVREVVNRLDR
B2: OPALIN, Q96PE5 (protein)
chain: MSFSLNFTLPANTTSSPVTGGKETDCGPSLGLAAGIPLLVATALLVALLFTLIHRRRSSIEAMEESDRPCEISEIDDNPKISENPRRSPTHEKNTMGAQEAHIYVKTVAGSEEPVHDRYRPTIEMERRRGLWWLVPRLSLE
B3: ANXA7, P20073 (protein)
chain: MSYPGYPPTGYPPFPGYPPAGQESSFPPSGQYPYPSGFPPMGGGAYPQVPSSGYPGAGGYPAPGGYPAPGGYPGAPQPGGAPSYPGVPPGQGFGVPPGGAGFSGYPQPPSQSYGGGPAQVPLPGGFPGGQMPSQYPGGQPTYPSQINTDSFSSYPVFSPVSLDYSSEPATVTQVTQGTIRPAANFDAIRDAEILRKAMKGFGTDEQAIVDVVANRSNDQRQKIKAAFKTSYGKDLIKDLKSELSGNMEELILALFMPPTYYDAWSLRKAMQGAGTQERVLIEILCTRTNQEIREIVRCYQSEFGRDLEKDIRSDTSGHFERLLVSMCQGNRDENQSINHQMAQEDAQRLYQAGEGRLGTDESCFNMILATRSFPQLRATMEAYSRMANRDLLSSVSREFSGYVESGLKTILQCALNRPAFFAERLYYAMKGAGTDDSTLVRIVVTRSEIDLVQIKQMFAQMYQKTLGTMIAGDTSGDYRRLLLAIVGQ
B4: PAK1, Q13153 (protein)
chain: MSNNGLDIQDKPPAPPMRNTSTMIGAGSKDAGTLNHGSKPLPPNPEEKKKKDRFYRSILPGDKTNKKKEKERPEISLPSDFEHTIHVGFDAVTGEFTGMPEQWARLLQTSNITKSEQKKNPQAVLDVLEFYNSKKTSNSQKYMSFTDKSAEDYNSSNALNVKAVSETPAVPPVSEDEDDDDDDATPPPVIAPRPEHTKSVYTRSVIEPLPVTPTRDVATSPISPTENNTTPPDALTRNTEKQKKKPKMSDEEILEKLRSIVSVGDPKKKYTRFEKIGQGASGTVYTAMDVATGQEVAIKQMNLQQQPKKELIINEILVMRENKNPNIVNYLDSYLVGDELWVVMEYLAGGSLTDVVTETCMDEGQIAAVCRECLQALEFLHSNQVIHRDIKSDNILLGMDGSVKLTDFGFCAQITPEQSKRSTMVGTPYWMAPEVVTRKAYGPKVDIWSLGIMAIEMIEGEPPYLNENPLRALYLIATNGTPELQNPEKLSAIFRDFLNRCLEMDVEKRGSAKELLQHQFLKIAKPLSSLTPLIAAAKEATKNNH

Some of the results follow. Interaction screen of human proteins with wild-type SARS-CoV-2 proteins by split-DHFR complementation in yeast, 1 µg/mL methotrexate. Value = fitness of the pair (three or more lineages) minus that of the viral protein without a human partner, on a scale set by negative (0) and fused positive (1) controls, mean of up to three cultures; higher = more likely to interact. Active = false discovery rate below 0.05 (one-sided t-test) in at least one culture. Nearly all pairs are not hits, and differences among them are mostly noise (correlation between cultures about 0.3); most hits were seen in one culture only. Human sequences are the Swiss-Prot entries looked up by gene name; the clone may be another isoform. NSP2 values were corrected by the authors for a growth advantage. Listed are human proteins with a hit and a random twelfth of the others.

The target in one experiment is SARS-CoV-2 E. As to the kind of experiment: yeast fitness gain over the viral ORF with no human partner (scaled fitness); higher = more likely to interact. As for the experimental part:
(§1)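 Split mouse DHFR complementation in pooled diploid yeast: human ORFeome clones carry one fragment and viral ORFs the other; barcoded lineages compete in 1 µg/mL methotrexate and fitness is read by barcode sequencing in up to three cultures.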
Consider B1, for which the yeast fitness gain is inactive: -0.144.
The same measure, in the same setting: the value for B2 was inactive: -0.0413.
For the molecule B3, the yeast fitness gain is inactive: -0.0635.
As for B4, the yeast fitness gain was inactive: -0.0252.

For another experiment, the target named is SARS-CoV-2 NSP10. Described as above. The procedure: as §1
On to B1, for which the yeast fitness gain was inactive: 0.116.
Turning to B2, the yeast fitness gain is inactive: -0.0181.
The same measure, in the same setting: for B3 the value was inactive: 0.0282.
The same measure, in the same setting: for B4 the value was inactive: 0.00989.

In a further experiment the target is SARS-CoV-2 NSP12. Described as above. The procedure:
as §1
For B1, the yeast fitness gain was inactive: -0.203.
Regarding B2, the yeast fitness gain was inactive: 0.0528.
For the molecule B3, the yeast fitness gain is inactive: 0.0299.
The same measure, in the same setting: the value for B4 was inactive: 0.012.

A further experiment has as its target SARS-CoV-2 NSP13. Described as above. The procedure: as §1
For the molecule B1, the yeast fitness gain is inactive: 0.0158.
Consider B2, for which the yeast fitness gain is inactive: 0.00241.
On the same count and under the same terms, for B3 the value was inactive: 0.0398; for B4, inactive: -0.0486.

The target in a further experiment is SARS-CoV-2 NSP2. The experiment is described as above. The procedure:
as §1
Turning to B1, the yeast fitness gain was inactive: -0.207.
For the molecule B2, the yeast fitness gain was inactive: -0.0308.
As to B3, the yeast fitness gain is inactive: -0.0599.
Take B4: the yeast fitness gain is active: 0.558.

A further experiment concerns the target SARS-CoV-2 NSP5. The description is as above. As for the experimental part:
as §1
For the molecule B1, the yeast fitness gain was inactive: -0.101.
Still for that read-out and setting: the value for B2 was inactive: 0.0111; that for B3 was inactive: 0.0876.
Same read-out and setting: the value for B4 was inactive: -0.0728.

The target in another experiment is SARS-CoV-2 ORF10. The experiment is described as above. As for the experimental part: as §1
With B1, the yeast fitness gain was inactive: -0.0828.
On the same count and under the same terms, for B2 the value was inactive: 0.0443.
The same measure, in the same setting: the value for B3 was inactive: -0.0175.
Same read-out and setting: the value for B4 was inactive: -0.222.

Another experiment concerns the target SARS-CoV-2 ORF3B. The description is as above. The procedure: as §1
For the molecule B1, the yeast fitness gain was inactive: -0.0506.
B2: the yeast fitness gain was inactive: 0.0161.
Same read-out and setting: the value for B3 was inactive: 0.00838; that for B4 was inactive: 0.0491.

For a further experiment, the target named is SARS-CoV-2 ORF6. The experiment is described as above. The procedure: as §1
B1: the yeast fitness gain was inactive: 0.0341.
The same measure, in the same setting: for B2 the value was inactive: -0.0158.
As to B3, the yeast fitness gain was inactive: -0.00566.
For B4, the yeast fitness gain is inactive: 0.0382.

In the next experiment the target is SARS-CoV-2 ORF7B. The description is as above. As for the experimental part: as §1
With B1, the yeast fitness gain is inactive: -0.0723.
The same measure, in the same setting: the value for B2 was active: 0.39; that for B3 was inactive: 0.0075; that for B4 was inactive: -0.673.

A further experiment addresses SARS-CoV-2 ORF8. Described as above. As for the experimental part: as §1
Turning to B1, the yeast fitness gain is inactive: 0.104.
On the same count and under the same terms, the value for B2 was inactive: 0.0376; that for B3 was inactive: 0.0533.
Same read-out and setting: the value for B4 was inactive: 0.03.

The target in a further experiment is SARS-CoV-2 S. Described as above. As for the experimental part:
as §1
B1: the yeast fitness gain was inactive: -0.00507.
On the same count and under the same terms, for B2 the value was inactive: -0.0304.
Still for that read-out and setting: the value for B3 was inactive: 0.0409; that for B4 was inactive: -0.0237.

In a further experiment the target is SARS-CoV-2 M. The description is as above. The procedure: as §1
With B2, the yeast fitness gain was inactive: 0.0183.
Consider B3, for which the yeast fitness gain is inactive: 0.0762.
Still for that read-out and setting: the value for B4 was inactive: -0.0294.

The next experiment concerns the target SARS-CoV-2 N. The description is as above. The procedure: as §1
Turning to B2, the yeast fitness gain was inactive: 0.0375.
On the same count and under the same terms, the value for B3 was inactive: 0.00795.

Another experiment deals with SARS-CoV-2 NSP1. The experiment is described as above. As for the experimental part: as §1
Take B2: the yeast fitness gain was inactive: 0.0479.
The same measure, in the same setting: the value for B3 was inactive: -0.015.
On the same count and under the same terms, the value for B4 was inactive: 0.0281.

The target in a further experiment is SARS-CoV-2 NSP14. The description is as above. As for the experimental part:
as §1
In the case of B2, the yeast fitness gain is inactive: 0.0303.
Same read-out and setting: for B3 the value was inactive: 0.0768.

For a further experiment, the target named is SARS-CoV-2 NSP15. The description is as above. The procedure: as §1
On to B2, for which the yeast fitness gain was inactive: 0.0759.
Take B3: the yeast fitness gain is inactive: -0.0301.
On the same count and under the same terms, for B4 the value was inactive: 0.0268.

A further experiment deals with SARS-CoV-2 NSP16. The description is as above. As for the experimental part: as §1
Turning to B2, the yeast fitness gain was inactive: 0.0263.
B3: the yeast fitness gain is inactive: -0.0283.
With B4, the yeast fitness gain is inactive: -0.288.

The target in another experiment is SARS-CoV-2 NSP4. Described as above. As for the experimental part:
as §1
As to B2, the yeast fitness gain was inactive: 0.325.
Consider B3, for which the yeast fitness gain was inactive: 0.108.

The next experiment has as its target SARS-CoV-2 NSP6. The description is as above. The procedure:
as §1
B2: the yeast fitness gain was inactive: 0.0277.
As for B3, the yeast fitness gain is inactive: 0.11.
The same measure, in the same setting: the value for B4 was inactive: -0.148.

In another experiment the target is SARS-CoV-2 NSP7. Described as above. As for the experimental part: as §1
Consider B2, for which the yeast fitness gain was inactive: -0.00648.
On the same count and under the same terms, for B3 the value was inactive: 0.018; for B4, inactive: -0.183.

The next experiment addresses SARS-CoV-2 NSP8. The description is as above. The procedure:
as §1
Turning to B2, the yeast fitness gain was inactive: 0.0295.
On to B3, for which the yeast fitness gain was inactive: 0.0523.
As to B4, the yeast fitness gain was inactive: 0.00693.

In another experiment the target is SARS-CoV-2 NSP9. The experiment is described as above. As for the experimental part: as §1
On to B2, for which the yeast fitness gain is inactive: -0.0208.
As for B3, the yeast fitness gain is inactive: -0.113.
Still for that read-out and setting: the value for B4 was inactive: 0.13.

The target of another experiment is SARS-CoV-2 ORF3A. The description is as above. As for the experimental part:
as §1
On to B2, for which the yeast fitness gain was inactive: -0.0511.
As to B3, the yeast fitness gain is inactive: 0.000427.
With B4, the yeast fitness gain is inactive: -0.177.

Another experiment addresses SARS-CoV-2 ORF7A. Described as above. The procedure:
as §1
On to B2, for which the yeast fitness gain was inactive: 0.175.
Same read-out and setting: the value for B3 was inactive: -0.0199; that for B4 was inactive: 0.103.

For the next experiment, the target named is SARS-CoV-2 ORF9B. The experiment is described as above. The procedure:
as §1
On to B2, for which the yeast fitness gain was inactive: 0.0243.
The same measure, in the same setting: the value for B3 was inactive: 0.0604; that for B4 was inactive: -0.00448.

A further experiment deals with SARS-CoV-2 ORF9Bwu (the 73-codon ORF). Described as above. The procedure: as §1
Consider B2, for which the yeast fitness gain is inactive: -0.0374.
Still for that read-out and setting: the value for B3 was inactive: -0.0275; that for B4 was inactive: -0.0487.
